# Results as given in PMC4336329 (PLoS ONE, 2015).
# About 14,000 (4.5%) of roughly 310,000 compounds showed an effect of 50% or more. Effects have a minus sign here. The list shows a part of the results.
# Biological target: human ether-à-go-go-related gene (hERG) potassium channel (human, UniProt Q12809)
# Assay: primary screen, population patch clamp on CHO cells stably expressing hERG
# 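Further: peak tail current of the secondary pulse compared with the same well before compound.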
# human ether-à-go-go-related gene (hERG) potassium channel, sequence (Q12809 whole entry, looked up): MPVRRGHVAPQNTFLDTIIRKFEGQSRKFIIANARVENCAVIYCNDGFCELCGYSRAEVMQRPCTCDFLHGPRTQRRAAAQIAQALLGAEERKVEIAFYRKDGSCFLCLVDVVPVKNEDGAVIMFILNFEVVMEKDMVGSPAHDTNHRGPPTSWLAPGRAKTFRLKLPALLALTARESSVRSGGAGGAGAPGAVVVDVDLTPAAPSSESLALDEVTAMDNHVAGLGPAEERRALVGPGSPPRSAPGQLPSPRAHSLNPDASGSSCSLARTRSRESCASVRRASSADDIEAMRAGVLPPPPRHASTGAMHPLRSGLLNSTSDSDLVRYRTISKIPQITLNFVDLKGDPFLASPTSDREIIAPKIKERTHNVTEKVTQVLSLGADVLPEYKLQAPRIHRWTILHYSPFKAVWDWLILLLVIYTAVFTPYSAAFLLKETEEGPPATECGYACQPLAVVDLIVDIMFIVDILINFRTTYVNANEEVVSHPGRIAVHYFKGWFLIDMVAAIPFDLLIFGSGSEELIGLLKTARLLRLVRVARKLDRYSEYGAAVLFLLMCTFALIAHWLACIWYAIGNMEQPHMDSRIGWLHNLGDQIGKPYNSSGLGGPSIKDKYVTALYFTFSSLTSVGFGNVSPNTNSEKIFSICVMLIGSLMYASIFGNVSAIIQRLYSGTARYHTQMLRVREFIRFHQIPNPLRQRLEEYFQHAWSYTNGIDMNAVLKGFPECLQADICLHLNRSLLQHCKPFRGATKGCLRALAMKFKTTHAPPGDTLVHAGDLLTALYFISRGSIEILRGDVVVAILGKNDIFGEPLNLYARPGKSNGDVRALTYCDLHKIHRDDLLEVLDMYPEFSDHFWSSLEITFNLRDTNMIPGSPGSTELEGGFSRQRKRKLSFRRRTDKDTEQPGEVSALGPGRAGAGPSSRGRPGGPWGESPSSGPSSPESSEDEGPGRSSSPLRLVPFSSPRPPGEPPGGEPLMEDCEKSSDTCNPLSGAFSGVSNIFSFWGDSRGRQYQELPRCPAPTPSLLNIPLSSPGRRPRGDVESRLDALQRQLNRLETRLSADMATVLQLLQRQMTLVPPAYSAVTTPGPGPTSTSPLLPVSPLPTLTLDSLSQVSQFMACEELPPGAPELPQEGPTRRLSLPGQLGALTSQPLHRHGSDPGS
row,SMILES,"hERG current change (%, negative = inhibition) at 10uM"
1,Cc1cccc2cc(CN(CC3CCCO3)C(c3nnnn3Cc3ccco3)C(C)C)c(=O)[nH]c12 (centres unmarked),-3.56%
2,CN1CCN(NC(=O)CC(C)(C)C)CC1,22.9%
3,CN(C)C/C=C(\c1ccc(Br)cc1)c1cccnc1.Cl.O,-63.7%
4,OC(COc1cccc2ccccc12)CN1CCN(c2ccccc2)CC1 (centres unmarked),-33.2%
5,CC(C)c1ccc(/C=C2\C(=N)N3N=C(CC(=O)N4CCCCC4)SC3=NC2=O)cc1,14.2%
6,CC1(OC(=O)C2CCCC2)C(=O)C=C2C=C(C3CC3)OC=C2C1=O (centres unmarked),2.82%
7,O=C(O)c1c(-n2cccc2)sc2c1CCCC2,24.4%
8,COC(=O)C1=C(O)CSC1=Nc1ccccc1,-14.3%
9,O=C(c1ccccc1)c1nn(-c2ccc(Cl)cc2)cc1C(=O)c1cc2ccccc2oc1=O,6.29%
10,O=C(CCNC(=O)C1CCN(S(=O)(=O)c2ccccc2)CC1)NCc1ccccn1,24.1%
11,O=c1c(-c2cnn(-c3ccccc3)c2)coc2cc(O)ccc12,2.55%
12,CCOC(=O)C1CCCN(C(=O)/C=C/c2cccc([N+](=O)[O-])c2)C1 (centres unmarked),-41.8%
13,Cc1noc(C)c1COc1cccc(C(=O)OC(C)C(=O)Nc2ccc3c(c2)OCO3)c1 (centres unmarked),-61.2%
14,CCOc1ccc(S(=O)(=O)Nc2ccc(Cl)cn2)c(C)c1C,11.3%
15,Cc1cc(C)c2nc(-c3ccccn3)cc(C(=O)Nc3ccc(S(=O)(=O)Nc4onc(C)c4C)cc3)c2c1,-2.33%
16,CCOc1cc(C(=O)N/N=C\c2cn(CC)nc2C)cc(OCC)c1OCC,10.5%
17,COc1ccc(/C=N/Nc2nncc3ccccc23)c(OC)c1,10.7%
18,CCOC(=O)C1(Cc2ccccc2C(F)(F)F)CCN(C(=O)c2cc(C)n(C)n2)CC1,-22.6%
19,O=C(O)CC(NC(=O)CCC1CCCCC1)c1cc([N+](=O)[O-])ccc1Cl (centres unmarked),16.5%
20,Cc1ccc(S(=O)(=O)N2CCN(C(=O)CCC(=O)NC3CCCc4ccccc43)CC2)cc1 (centres unmarked),-17.3%
21,CCOc1cc2c(cc1OCC)-n1cccc1C(c1cccc(F)c1)NC2.Cl (centres unmarked),-14.8%
22,Cc1ccc(C)c(S(=O)(=O)N2C(=S)NC(=O)C2C(C)C)c1 (centres unmarked),8.6%
23,O=C(Nc1ccc2c(c1)OCO2)C1CCN(S(=O)(=O)c2cccc3cccnc23)CC1,15.5%
